# According to article PMC4336329 (PLoS ONE, 2015):
# The campaign covered roughly 310,000 compounds. About 14,000 (4.5%) showed an effect of 50% or more. The effect is printed as a negative number. This is one part of the list.
# Molecular target: human ether-à-go-go-related gene (hERG) potassium channel (human, UniProt Q12809)
# Experiment: primary screen, population patch clamp on CHO cells stably expressing hERG
# 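Note: peak tail current of the secondary pulse compared with the same well before compound.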
# Sequence of human ether-à-go-go-related gene (hERG) potassium channel (Q12809 whole entry, looked up): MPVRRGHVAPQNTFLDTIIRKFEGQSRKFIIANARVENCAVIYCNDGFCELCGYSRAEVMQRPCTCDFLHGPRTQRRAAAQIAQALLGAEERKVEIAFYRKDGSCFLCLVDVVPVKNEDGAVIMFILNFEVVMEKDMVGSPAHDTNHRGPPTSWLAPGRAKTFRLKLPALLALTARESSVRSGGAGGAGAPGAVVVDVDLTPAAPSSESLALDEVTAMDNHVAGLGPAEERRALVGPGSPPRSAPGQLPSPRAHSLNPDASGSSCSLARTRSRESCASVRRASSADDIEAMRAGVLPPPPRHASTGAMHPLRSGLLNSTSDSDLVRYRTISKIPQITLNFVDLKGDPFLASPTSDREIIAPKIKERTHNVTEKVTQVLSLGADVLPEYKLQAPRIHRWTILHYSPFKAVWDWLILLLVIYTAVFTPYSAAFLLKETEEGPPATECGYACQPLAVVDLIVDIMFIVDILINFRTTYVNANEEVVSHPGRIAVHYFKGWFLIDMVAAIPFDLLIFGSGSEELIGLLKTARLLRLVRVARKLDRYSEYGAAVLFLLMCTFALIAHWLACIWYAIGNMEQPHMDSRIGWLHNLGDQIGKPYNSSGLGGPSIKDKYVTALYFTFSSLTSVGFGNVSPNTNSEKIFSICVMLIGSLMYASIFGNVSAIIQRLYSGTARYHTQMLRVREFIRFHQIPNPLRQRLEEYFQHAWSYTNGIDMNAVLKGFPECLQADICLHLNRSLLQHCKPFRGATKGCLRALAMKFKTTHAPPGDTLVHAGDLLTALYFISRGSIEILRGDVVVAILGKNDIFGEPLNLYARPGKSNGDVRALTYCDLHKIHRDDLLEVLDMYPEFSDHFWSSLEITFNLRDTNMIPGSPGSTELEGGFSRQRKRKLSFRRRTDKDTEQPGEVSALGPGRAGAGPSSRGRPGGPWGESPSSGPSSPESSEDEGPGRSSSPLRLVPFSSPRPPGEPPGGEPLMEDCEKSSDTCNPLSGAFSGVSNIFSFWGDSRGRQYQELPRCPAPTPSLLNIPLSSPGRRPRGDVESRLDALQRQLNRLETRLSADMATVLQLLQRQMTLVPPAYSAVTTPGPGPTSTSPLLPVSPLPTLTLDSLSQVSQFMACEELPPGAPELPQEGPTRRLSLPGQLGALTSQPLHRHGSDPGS
row,Structure (SMILES),"hERG current change (%, negative = inhibition) at 10uM"
1,COc1ccc(S(=O)(=O)N2CC(C(=O)O)Oc3ccc(CC(=O)O)cc32)cc1 (stereo not shown),18.2%
2,CC(C)COc1ccc(Cc2cnc(N)nc2N)cc1,-14.4%
3,CC(=O)Nc1ccc(S(=O)(=O)c2ccc(C)cc2)cc1,10.3%
4,Cc1no[n+]([O-])c1COc1cccc(/C=C2\N=C(c3ccccc3)OC2=O)c1,21.6%
5,CC(O)CNc1nc2sc3c(c2c(=O)n1Cc1ccco1)CCCCC3 (stereo not shown),4.61%
6,CC1CCN(CCOc2cccc(Br)c2)CC1.O=C(O)C(=O)O,-20.3%
7,CCN1CCN(C(=O)NC2CC(=O)N(c3ccc(OC)cc3)C2)CC1 (stereo not shown),6.8%
8,CCOc1cc(N2CCOCC2)c(OCC)cc1NC(=O)c1cccc(N(C)C)c1,-22.1%
9,COC(=O)N1C(=O)[C@@](c2ccccc2)(C2CCCCC2)N1C(=O)OC,6.94%
10,O=C(CN1C(=O)NC2(CCOc3ccccc32)C1=O)Nc1cccc(Cl)c1 (stereo not shown),26.5%
11,CC(C)CNC(=O)NC(=O)COC(=O)c1ccccc1Sc1ccc(C(F)(F)F)cc1[N+](=O)[O-],11.1%
12,CCCn1ncc(CN2CCC(C(=O)Nc3cccc(-c4cccc(F)c4)c3)CC2)c1C,-71.7%
13,CCc1ccc(NC(=O)Cn2nnc(C(=O)NCc3cccs3)c2N)cc1,7.14%
14,C=CCNC(=O)c1ccc2c(c1)nnn2C,4.52%
15,COc1ccc(N2CC(C(=O)Nc3nc4ccc(F)cc4s3)CC2=O)c(OC)c1 (stereo not shown),-56.3%
16,O=C(CCNc1ccc(Cl)c(C(F)(F)F)c1)c1ccco1,-23.7%
17,CN(CC(=O)Nc1c(Cl)cccc1Cl)C(=O)CNC(=O)c1ccc2c(c1)OCO2,6.07%
18,Cc1ccc(NC(=O)CN(C)C(=O)C2CC(=O)N(Cc3ccccc3)C2)cc1 (stereo not shown),-8.54%
19,COc1cc(CNc2ccc(NC(C)=O)cc2)ccc1OCc1ccccc1C,-5.23%
20,Cc1ccc(C(=O)N/N=C/C=C/c2ccccc2)cc1,-3.39%
21,COc1cc(C(=O)NC(=S)Nc2ccc3c(c2)OCO3)cc(OC)c1OC,12.1%
22,CCOc1ccc(C(C(=O)NC(C)(C)C)N(CCOC)C(=O)CCC(=O)Nc2ccccn2)cc1 (stereo not shown),-5.95%

row,Structure (SMILES),"hERG current change (%, negative = inhibition) at 10uM"
1,COc1ccc(NC(=O)CCCCCN2C(=O)c3ccccc3C2=O)c(OC)c1,-4.85%
2,COc1cccc(N2C(=O)NC(=O)C3(Cc4cc(C)ccc4N(C)C3)C2=O)c1 (stereo not shown),20%
3,Cc1cc(C)n(C(=O)CCC(=O)Nc2ccc(C)c(C)c2)n1,4.7%
4,CC(C)c1ccc(N(CC(=O)NN=C2CCN(C)CC2)S(=O)(=O)c2ccccc2)cc1,-6.39%
5,CCn1c(=O)cc(SCC(=O)Nc2ccc(Cl)cc2)c2ccccc21,2.96%
6,CCc1ccc(NC(=O)CSc2nc(O)cc(=O)n2C2CCCC2)cc1,18.2%
7,CC(C#N)Sc1nc2ccccc2c(=O)n1-c1ccccc1 (stereo not shown),4.25%
8,Cc1ccc2nc(C(F)(F)F)c(C#N)c(N)c2c1,-0.558%
9,COCCn1c(=O)[nH]c2cc(C(=O)NCCc3ccc(S(N)(=O)=O)cc3)ccc2c1=O,23.7%
10,COc1ccccc1Nc1nc(N)nc(CN2CCCCCC2)n1,-57.7%
11,COc1ccc(CNC(=O)c2cc3ccccc3oc2=O)cc1,18.6%
12,O=c1c2ccccc2cnn1Cc1nnc(-c2cccs2)o1,14.2%
13,CCCCNCCOCCSc1ccc(Cl)cc1.O=C(O)C(=O)O,-43.5%
14,Brc1ccccc1-c1nnc(COc2cccc3cccnc23)o1,4.19%
15,CCn1c(SCc2nc(-c3ccc(Cl)cc3)no2)nnc1-c1ccco1,-62%
16,COc1cc(/C=N/Nc2ccc(S(N)(=O)=O)cc2)cc(OC)c1OC,14.6%
17,O=C(NCc1cccnc1)c1cc(Sc2ccc(F)cc2F)nc2ccccc12,-55.3%
18,Cc1ccc(-c2cc(C(=O)Nc3ccc(S(=O)(=O)N4CC(C)OC(C)C4)cc3)[nH]n2)c(O)c1 (stereo not shown),18.3%
19,CCN(CC)C(=O)c1[nH]cnc1C(=O)N[C@@H](CC(C)C)C(=O)OC(C)(C)C,-0.88%
20,CC(C)NCC(O)COc1ccc(Br)cc1.Cl (stereo not shown),-30.3%
21,CCOC(=O)C(O)(c1ccc(N)c(OC)c1)C(F)(F)F (stereo not shown),2.17%
22,CN(C(=O)CN1CCC(NC(=O)c2ccccc2Br)CC1)C1CCCCC1,1.21%

row,Structure (SMILES),"hERG current change (%, negative = inhibition) at 10uM"
1,O=C(CCc1ccc(S(=O)(=O)NC2CCCCC2)cc1)NCc1ccccn1,16.6%
2,Cc1ccccc1NC(=O)COC(=O)C1C2CC3OC(=O)C1C3C2 (stereo not shown),-8.23%
3,O=C(Nc1nnc(C2=COCCO2)o1)c1ccc([N+](=O)[O-])s1,-4.83%
4,CN1CC(=O)N2[C@H](c3ccc4c(c3)OCO4)c3[nH]c4ccccc4c3C[C@@H]2C1=O,4.73%
5,CC(=O)Nc1ccc(C(=O)CSc2nnc(C)o2)cc1,-0.917%
6,Cc1ccc([C@@H]2[C@@H]3C(=O)N(c4ccccc4)C(=O)[C@@H]3[C@]3(C)C(=O)N(Cc4ccc(-c5ccccc5)cc4)CC(=O)N23)o1,-3.86%
7,CC(C)NC(=O)c1ccc(-c2cc(C(F)(F)F)ccc2Cl)o1,6.95%
8,Cc1c(Cl)cccc1NC(=O)CSCC(N)=O,-10.1%
9,CCCCn1c(=O)n(CC(=O)Nc2ccc(OC)c(Cl)c2)c(=O)c2c1nc(CO)n2CCC,-19.4%
10,CCC(O)CNC(=O)NC(=C(Cl)Cl)c1ccc(C)c(F)c1 (stereo not shown),-12.6%
11,CCc1ccc(S(=O)(=O)NCCc2cn3cccc(C)c3n2)s1,-16.2%
12,CN(CCc1cn[nH]c1)Cc1nc(Cc2ccccc2F)no1,10.4%
13,CCOc1ccc(-c2nnc3sc(COc4ccc(C)cc4)nn23)cc1,13.3%
14,COC(=O)c1cc2c(ccn2-c2ccc(F)cc2)n1CC(=O)N1CCN(C(=O)c2ccco2)CC1,-66.6%
15,O=C1CC2c3ccccc3C1C1C(=O)N(Cc3ccccc3)C(=O)C21 (stereo not shown),3.15%
16,O=C(c1cccc([N+](=O)[O-])c1)c1ccc2c(c1)OCCOCCOCCOCCO2,-69.8%
17,COc1ccc(CCNC(=O)CSc2nnc3ccc(-c4ccccn4)nn23)cc1,-51.6%
18,CN(CC(=O)Nc1ccccc1C(F)(F)F)C(=O)CCc1nc2sc3c(c2c(=O)[nH]1)CCCC3,7.94%
19,COc1ccc(Oc2c(Cl)cnn(-c3ccc(F)cc3)c2=O)cc1,-24.2%
20,Cc1cccc(NC(=O)CC2(CC(=O)O)CCCC2)c1,24.6%
21,CCCCC(=O)Nc1ccc(C(=O)NNC(=O)CCc2ccccc2)cc1,17.2%
22,O=C1NC(=S)N/C1=C\c1cccnc1,11.9%

row,Structure (SMILES),"hERG current change (%, negative = inhibition) at 10uM"
1,COc1ccc(C2(O)C(=O)Nc3ccc(C)cc32)cc1 (stereo not shown),11.7%
2,O=C1c2cccc([N+](=O)[O-])c2C(=O)N1c1cccnc1,1.66%
3,CC1CCCC(NC(=O)c2ccc3c(SCC(=O)O)c4c(nc3c2)CCC4)C1C (stereo not shown),3.49%
4,COc1ccc(/C=C2/SC(=S)N(CCCC(=O)Nc3ccc(O)cc3)C2=O)cc1OC,2.25%
5,Cc1cccc(CCNS(=O)(=O)c2ccc(S(=O)(=O)N3CCC(C)CC3)cc2)c1,12.8%
6,O=[N+]([O-])c1cccc(-c2n[nH]c(=S)n2-c2ccc(Br)cc2)c1,-1.17%
7,O=C(COC(=O)CCN1C(=O)/C(=C\C=C\c2ccccc2)SC1=S)Nc1ccc(Br)cc1,2.41%
8,CCCCNc1nc2ccccc2n1CC(=O)Nc1ccc2c(c1)OCCO2,-10.2%
9,COC(=O)Cn1c2ccccc2c2nc(=O)cc(C)n21,20.9%
10,COc1ccc(N2C(=O)C3C(C2=O)C(C(=O)c2ccc(Cl)cc2)N2CCCC32)cc1 (stereo not shown),-30.8%
11,CC(C)(C)NC(=O)COc1coc(CN2CCN(C(=O)c3ccco3)CC2)cc1=O,20.1%
12,CNC(=O)c1c(NC(=O)CS(=O)(=O)c2ccc(Cl)cc2)sc(C)c1C,-21.9%
13,COc1ccc(C(=O)NCC(=O)NCC2COc3ccccc3O2)cc1 (stereo not shown),-9.45%
14,COc1ccc(-c2cc3ccccc3oc2=O)cc1,8.45%
15,O=C(Nc1ccc(S(=O)(=O)Nc2nccc(C3Cc4ccccc4C(=O)O3)n2)cc1)c1ccccc1 (stereo not shown),-6.29%
16,O=C(O)Cn1c(P(=O)(O)c2ccccc2)nc2ccccc21,12.9%
17,CC(=O)Nc1ccc(S(=O)(=O)NC2=NCN(c3cccc([N+](=O)[O-])c3)CN2)cc1,29.8%
18,CC(CC(=O)Nc1cc([N+](=O)[O-])ccc1Cl)c1ccccc1 (stereo not shown),5.92%
19,CC(OC(=O)c1cc(Br)ccc1O)C(=O)NCc1ccc2c(c1)OCO2 (stereo not shown),-0.383%
